From paper PMC4336329 (PLoS ONE, 2015) come the findings set out here.

About 14,000 (4.5%) of roughly 310,000 compounds showed an effect of 50% or more. The effect is printed as a negative number. The list shows a part of the results.
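Note: peak tail current of the secondary pulse compared with the same well before compound.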

For this assay, the target named is human ether-à-go-go-related gene (hERG) potassium channel (human, UniProt Q12809). Description: primary screen, population patch clamp on CHO cells stably expressing hERG.
Chain of human ether-à-go-go-related gene (hERG) potassium channel (Q12809 whole entry, looked up): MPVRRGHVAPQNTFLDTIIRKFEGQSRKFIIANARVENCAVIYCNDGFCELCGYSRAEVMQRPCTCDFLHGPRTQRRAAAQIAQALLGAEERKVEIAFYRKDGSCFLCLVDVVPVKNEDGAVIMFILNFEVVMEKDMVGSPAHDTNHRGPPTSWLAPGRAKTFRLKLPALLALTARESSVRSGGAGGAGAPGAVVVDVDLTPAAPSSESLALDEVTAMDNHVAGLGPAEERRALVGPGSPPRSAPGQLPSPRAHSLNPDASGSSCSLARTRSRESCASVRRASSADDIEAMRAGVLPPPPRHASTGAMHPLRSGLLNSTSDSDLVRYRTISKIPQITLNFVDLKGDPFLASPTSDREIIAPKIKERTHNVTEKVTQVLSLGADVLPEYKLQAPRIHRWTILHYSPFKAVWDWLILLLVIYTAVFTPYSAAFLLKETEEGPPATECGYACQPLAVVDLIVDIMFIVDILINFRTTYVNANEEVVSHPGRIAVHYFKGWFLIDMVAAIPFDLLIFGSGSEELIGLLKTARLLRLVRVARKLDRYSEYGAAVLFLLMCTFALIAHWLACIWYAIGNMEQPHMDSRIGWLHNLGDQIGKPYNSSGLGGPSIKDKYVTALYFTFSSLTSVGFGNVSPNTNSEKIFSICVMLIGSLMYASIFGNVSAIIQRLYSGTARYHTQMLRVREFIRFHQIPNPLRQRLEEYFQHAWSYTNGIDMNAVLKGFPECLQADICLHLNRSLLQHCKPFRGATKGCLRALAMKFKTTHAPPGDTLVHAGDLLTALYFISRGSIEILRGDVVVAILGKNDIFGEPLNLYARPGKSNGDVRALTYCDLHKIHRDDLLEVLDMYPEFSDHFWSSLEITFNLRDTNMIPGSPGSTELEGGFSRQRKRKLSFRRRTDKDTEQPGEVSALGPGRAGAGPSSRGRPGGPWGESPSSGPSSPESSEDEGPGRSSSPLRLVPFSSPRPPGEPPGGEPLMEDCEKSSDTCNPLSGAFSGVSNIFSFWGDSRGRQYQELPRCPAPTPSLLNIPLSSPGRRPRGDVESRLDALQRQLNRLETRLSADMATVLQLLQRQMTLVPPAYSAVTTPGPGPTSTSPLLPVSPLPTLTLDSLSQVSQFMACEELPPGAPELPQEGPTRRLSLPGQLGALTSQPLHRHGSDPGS
In the case of `CN1CCN(C(=S)Nc2ccc(Oc3ccccc3)cc2)CC1`, the “hERG current change (%, negative = inhibition) at 10uM” value is -11.6%.

Turning to `O=C(N/N=C/c1cccs1)C1COc2ccccc2O1` (stereo not drawn), the “hERG current change (%, negative = inhibition) at 10uM” value is -5.17%.

As for `O=[N+]([O-])c1cccnc1N1CCCNCC1`, the “hERG current change (%, negative = inhibition) at 10uM” value is listed as -30.4%.

As to `O=C(NCc1ccccc1)C1=C[C@H](c2coc3ccccc3c2=O)C[C@H](OCCCCO)O1`, the “hERG current change (%, negative = inhibition) at 10uM” value is recorded as -55.4%.

For the compound `CCOC(=O)CN1N=C(c2ccc(Cl)cc2)CCC1=O`, the “hERG current change (%, negative = inhibition) at 10uM” value is -26.8%.

In the case of `COc1cc(-c2cc(N)n(S(=O)(=O)c3ccc(F)cc3)n2)cc(OC)c1OC`, the “hERG current change (%, negative = inhibition) at 10uM” value is -24.8%.

As for `CCN(Cc1ccccc1)C(=O)COC(=O)c1n[nH]c2ccccc12`, the “hERG current change (%, negative = inhibition) at 10uM” value is reported as 0.426%.

In the case of `O=C(CCc1ccccc1)Nc1nc2c(F)cc(F)cc2s1`, the “hERG current change (%, negative = inhibition) at 10uM” value was found to be 7.91%.

Turning to `O=C(c1ccc2c3c(cccc13)CC2)C1CCCN(CC2CC2)C1` (stereo not drawn), the “hERG current change (%, negative = inhibition) at 10uM” value is -46.3%.

With `COc1ccc([C@H]2CC(=O)C=C(c3cccc(OC)c3OC)C2)cc1OC`, the “hERG current change (%, negative = inhibition) at 10uM” value was -30%.

`O=C(CNC(=O)c1ccc(Br)o1)NCc1ccc(Cl)cc1Cl`: the “hERG current change (%, negative = inhibition) at 10uM” value is -8.98%.

Regarding `COc1nccc(Nc2ccccc2)c1C#N`, the “hERG current change (%, negative = inhibition) at 10uM” value is recorded as -7.83%.

Regarding `Cc1c(CCC(=O)NC2CC2)c(=O)oc2cc(O)ccc12`, the “hERG current change (%, negative = inhibition) at 10uM” value came to 1.97%.

For `CCOc1ccc(Oc2ccc(S(=O)(=O)N3CCOCC3)cc2N)cc1`, the “hERG current change (%, negative = inhibition) at 10uM” value is given as -19.4%.

Regarding `CCn1c(CNC(=O)c2ccco2)nnc1SCC(=O)Nc1cc(C(F)(F)F)ccc1Cl`, the “hERG current change (%, negative = inhibition) at 10uM” value was -31.6%.

Consider `Cc1cccc(OC(C)C(=O)Nc2cc(S(=O)(=O)N3CCCCC3)ccc2C)c1` (stereo not drawn), for which the “hERG current change (%, negative = inhibition) at 10uM” value is -12.9%.

In the case of `COC(=O)c1c(NC(=O)CCN2CCOCC2)sc2c1CCCC2`, the “hERG current change (%, negative = inhibition) at 10uM” value is given as -26%.

For the compound `Cc1ccc(C)c2nc(SCC(=O)N3CCCc4ccccc43)c(C#N)cc12`, the “hERG current change (%, negative = inhibition) at 10uM” value amounted to 2.14%.

As for `COCCNC(=O)c1ccc2c3n(nc2c1)-c1ccc(C)cc1CO3`, the “hERG current change (%, negative = inhibition) at 10uM” value is recorded as -14.8%.

Take `S=C(NCc1ccc(Cl)cc1Cl)NC1CCCCC1`: the “hERG current change (%, negative = inhibition) at 10uM” value stood at 24.2%.

With `CCC(C(=O)N1CCN(C(=O)c2ccco2)CC1)n1sc2ccccc2c1=O` (stereo not drawn), the “hERG current change (%, negative = inhibition) at 10uM” value was -26%.

Take `CC(C)CC(=O)Nc1ccccc1Oc1ccccc1`: the “hERG current change (%, negative = inhibition) at 10uM” value is given as -2.96%.

`CCOc1cccc(-c2cc(C(=O)NN)[nH]n2)c1`: the “hERG current change (%, negative = inhibition) at 10uM” value was determined as 9.76%.

`COc1ccc(N2CCN(S(=O)(=O)CCNC(=O)C3CC(=O)N(c4ccccc4)C3)CC2)cc1` (stereo not drawn): the “hERG current change (%, negative = inhibition) at 10uM” value was 22.6%.

Take `COC(=O)c1ccc(S(=O)(=O)N(CCO)Cc2ccccc2)n1C`: the “hERG current change (%, negative = inhibition) at 10uM” value is on record as 6.18%.

For the compound `CCC1(CC)N=C(c2ccccc2)C(=S)N1`, the “hERG current change (%, negative = inhibition) at 10uM” value came out at 10.2%.

For `COc1ccc(Cl)cc1C(=O)NCCCN1CCOCC1`, the “hERG current change (%, negative = inhibition) at 10uM” value was found to be 9.16%.

In the case of `NC(=O)C1CCN(CC(=O)Nc2nc(-c3ccccc3)cs2)CC1`, the “hERG current change (%, negative = inhibition) at 10uM” value was -0.413%.

For `Cn1ncc(Oc2ccc([N+](=O)[O-])cc2)c(Cl)c1=O`, the “hERG current change (%, negative = inhibition) at 10uM” value is -71.2%.

Consider `O=C(Nc1cccc(F)c1)C1CCCN(S(=O)(=O)c2cccc3cccnc23)C1` (stereo not drawn), for which the “hERG current change (%, negative = inhibition) at 10uM” value is 19.7%.

`Cc1cccc(N2CC(C(=O)Nc3nnc(SCc4cccnc4)s3)CC2=O)c1` (stereo not drawn): the “hERG current change (%, negative = inhibition) at 10uM” value is -4.03%.

`CN(C)S(=O)(=O)N1CCC(Oc2cccc(C(=O)N3CCSCC3)c2)CC1`: the “hERG current change (%, negative = inhibition) at 10uM” value was 13.6%.

For `CCCCC[C@H](O)/C=C/[C@H]1CCC(=O)[C@@H]1CCCCCCC(=O)N1CCCCC1CO` (stereo partly drawn), the “hERG current change (%, negative = inhibition) at 10uM” value amounted to 4.91%.

On to `O=C(CCN1C(=O)/C(=C/c2cccc(Br)c2)SC1=S)NNC(=O)c1cccnc1`, for which the “hERG current change (%, negative = inhibition) at 10uM” value worked out at 6.24%.

Turning to `Cc1sc2ncnc(N3CCC(C(=O)Nc4cc(Cl)ccc4Cl)CC3)c2c1C`, the “hERG current change (%, negative = inhibition) at 10uM” value was 4.42%.

Take `O=S(=O)(c1ccc(-c2ccon2)s1)N1CCN(c2ccncc2)CC1`: the “hERG current change (%, negative = inhibition) at 10uM” value is on record as -13.5%.

`CCOC(=O)N1CCN(C(=O)c2ccc(N(Cc3ccc(C)cc3)S(C)(=O)=O)cc2)CC1`: the “hERG current change (%, negative = inhibition) at 10uM” value is recorded as -31.3%.

Take `CSc1nc(C)c(Cl)c(C)c1C#N`: the “hERG current change (%, negative = inhibition) at 10uM” value is -4.89%.

As to `COc1ccc(NCc2nnc(SCC#N)n2-c2ccccc2OC)cc1`, the “hERG current change (%, negative = inhibition) at 10uM” value is -8.62%.

On to `NC(=O)C1CCN(C(=O)c2ccc(Oc3cc(Cl)cc(Cl)c3)o2)CC1`, for which the “hERG current change (%, negative = inhibition) at 10uM” value is -18.1%.

Regarding `N#C/C(=N/O)c1nc(-c2ccc(F)cc2)cs1`, the “hERG current change (%, negative = inhibition) at 10uM” value was 12.5%.

As for `Cc1ccccc1NC(=O)CSc1nnc(-c2ccco2)c(-c2ccco2)n1`, the “hERG current change (%, negative = inhibition) at 10uM” value was -53.9%.

With `COc1cc2c(cc1OC)CN(C(=O)c1cc(Cl)nc(Cl)c1)CC2`, the “hERG current change (%, negative = inhibition) at 10uM” value is given as 12.1%.

Regarding `CCCSCCCNC(=O)c1cc2c(s1)CS(=O)(=O)C2`, the “hERG current change (%, negative = inhibition) at 10uM” value was -7.85%.

For the compound `Cc1ccccc1C(=O)Nn1c(C)ccc1C`, the “hERG current change (%, negative = inhibition) at 10uM” value came to 12.2%.

Regarding `CC1=C(C(=O)OCC(C)C)C23C(=O)c4ccccc4C2(O1)OC(N)=C3C#N` (stereo not drawn), the “hERG current change (%, negative = inhibition) at 10uM” value is given as -9.24%.

As to `CCOc1ccc(NC(=O)c2cc(C)nc3ccccc23)cc1`, the “hERG current change (%, negative = inhibition) at 10uM” value is recorded as 2.33%.

For the compound `COc1ccc(CCn2c(C)c(C(C)=O)c3cc(OC(=O)c4ccco4)ccc32)cc1OC`, the “hERG current change (%, negative = inhibition) at 10uM” value is 4.27%.

For the compound `Cc1cccc(C(=O)Nc2nnc(Cc3ccccc3)s2)c1`, the “hERG current change (%, negative = inhibition) at 10uM” value is reported as 14.7%.

For the compound `O=C1CSC(=S)N1c1cccc(Cl)c1`, the “hERG current change (%, negative = inhibition) at 10uM” value came to 14.1%.

Turning to `O=C(O)/C=C/c1cn(Cc2ccccc2)nc1-c1ccccc1`, the “hERG current change (%, negative = inhibition) at 10uM” value turned out to be 1.89%.

Take `CCOC(=O)[C@H]1[C@H]2COc3cc(OC)ccc3[C@@H]2N2C(=O)c3cc(F)ccc3NC(=O)[C@@]12C`: the “hERG current change (%, negative = inhibition) at 10uM” value was -5.97%.

Take `COC(=O)c1cnn(-c2ccc(Cl)cc2)c1/C=N/NC(N)=S`: the “hERG current change (%, negative = inhibition) at 10uM” value is 7.44%.

Consider `Cc1ccc(C(=O)Nc2ccc(C(=O)NCC3CCCO3)cc2)cc1` (stereo not drawn), for which the “hERG current change (%, negative = inhibition) at 10uM” value is reported as 24.7%.

As to `CCC(C)N(C(=O)c1csnn1)C(C(=O)NCc1ccc(F)cc1)c1ccccc1F` (stereo not drawn), the “hERG current change (%, negative = inhibition) at 10uM” value is on record as -3.97%.

On to `CCNC(=O)OCCC12CC3CC(CC(C3)C1)C2`, for which the “hERG current change (%, negative = inhibition) at 10uM” value is on record as -7.36%.

Consider `Cc1ccc(N2CC(C(=O)N/N=C/c3cccc([N+](=O)[O-])c3)CC2=O)cc1` (stereo not drawn), for which the “hERG current change (%, negative = inhibition) at 10uM” value was -22.2%.
